Source: the supplement of paper PMC4967469
The IC50 comes from the fitted curve, where viability falls to half of the control; fits outside the tested doses are given as limits. AUC, from the same fit, is the share of area under the viability curve across the 256-fold dose range; the more sensitive the line, the further below 1. For part of these data: Where the top dose is marked as inferred, it was calculated from the reported fits. For part of these data: Where an entry number is given, a second screen of the drug exists; the two often differ.

How the values were obtained:
Assay in all cases: Viability of human cancer cell lines after 72 h of drug (GDSC screen)
MG-132 = compound: CC(C)C[C@@H](C=O)NC(=O)[C@H](CC(C)C)NC(=O)[C@H](CC(C)C)NC(=O)OCc1ccccc1 [MG-132]; details: top dose 1 µM
Procedure: (§1)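 Human cancer cell lines in 384-well plates, medium with 10% serum, drug for 72 h over a 256-fold dose range (nine 2-fold or five 4-fold steps up to the top dose). Adherent lines were fixed and stained with the nucleic acid dye Syto60, suspension lines read with resazurin; signal relative to control wells, capped at 0 and 100%. One two-parameter sigmoid per drug and line, fitted in a mixed model over all curves with the slope shared within a line.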

AR-42 = compound: CC(C)[C@H](C(=O)Nc1ccc(C(=O)NO)cc1)c1ccccc1 [AR-42]; details: top dose 5.12 µM; top dose inferred
Procedure: as §1

GDC0941 = compound: CS(=O)(=O)N1CCN(Cc2cc3nc(-c4cccc5[nH]ncc45)nc(N4CCOCC4)c3s2)CC1 [GDC0941]; details: top dose 4 µM; screen: GDSC drug entry 1527; top dose inferred
Procedure: as §1

CEP-701 = compound: C[C@]12O[C@H](C[C@]1(O)CO)n1c3ccccc3c3c4c(c5c6ccccc6n2c5c31)CNC4=O [CEP-701]; details: top dose 2 µM; top dose inferred
Procedure: as §1

Pazopanib = compound: Cc1ccc(Nc2nccc(N(C)c3ccc4c(C)n(C)nc4c3)n2)cc1S(N)(=O)=O [Pazopanib]; details: top dose 8 µM
Procedure: as §1

SB 216763 = compound: Cn1cc(C2=C(c3ccc(Cl)cc3Cl)C(=O)NC2=O)c2ccccc21 [SB 216763]; details: top dose 10 µM; top dose inferred
Procedure: as §1

Cell Line	AUC (MG-132)	IC50 (MG-132) [nM]	AUC (AR-42)	IC50 (AR-42) [nM]	AUC (GDC0941)	IC50 (GDC0941) [nM]	AUC (CEP-701)	IC50 (CEP-701) [nM]	AUC (Pazopanib)	IC50 (Pazopanib) [nM]	AUC (SB 216763)	IC50 (SB 216763) [nM]
8-MG-BA (glioma, adherent)	0.652	160	0.54	408	0.656	655	0.493	120	0.943	> 8000	0.923	> 10000
A253 (head and neck, adherent)	0.67	183	0.86	4110	0.988	> 4000	0.875	1880	0.858	6290	0.986	> 10000
A388 (skin, adherent)	0.55	87.1	0.82	3530	0.712	1100	0.886	> 2000	0.894	> 8000	0.977	> 10000
A498 (kidney, adherent)	0.936	> 1000	0.895	> 5120	0.707	–	0.575	–	0.971	> 8000	0.886	> 10000
AM-38 (glioma, semi-adherent)	0.963	> 1000	0.639	784	0.968	> 4000	0.863	1790	0.986	> 8000	0.988	> 10000
ARH-77 (myeloma, suspension)	0.727	268	0.359	132	0.725	1060	0.782	803	0.967	> 8000	0.982	> 10000
ATN-1 (T-cell lymphoblastic leukaemia, suspension)	0.977	> 1000	0.397	171	0.719	996	0.302	36.3	0.943	> 8000	0.983	> 10000
BE2-M17 (neuroblastoma, adherent)	0.836	688	0.66	901	0.893	> 4000	0.656	343	0.987	> 8000	0.97	> 10000
BT-474 (breast, adherent)	0.961	> 1000	0.769	2170	0.768	1680	0.842	1660	0.955	> 8000	0.982	> 10000
BV-173 (chronic myeloid leukaemia, suspension)	0.986	> 1000	0.318	107	0.804	1720	0.314	40.7	0.973	> 8000	0.908	> 10000
Becker (glioma, adherent)	0.812	617	0.929	> 5120	0.679	847	0.757	767	0.905	> 8000	0.983	> 10000
C2BBe1 (large intestine, adherent)	0.71	268	0.667	1000	0.816	2600	0.679	427	0.984	> 8000	0.984	> 10000
CCRF-CEM (lymphoblastic leukaemia, suspension)	0.761	303	0.285	88.9	0.774	1320	0.376	60.3	0.988	> 8000	0.986	> 10000
CESS (acute myeloid leukaemia, suspension)	0.672	174	0.254	71.8	0.715	913	0.818	926	0.984	> 8000	0.988	> 10000
CMK (acute myeloid leukaemia, suspension)	0.692	195	0.242	67.1	0.806	1670	0.585	205	0.978	> 8000	0.987	> 10000
COLO-320-HSR (large intestine, suspension)	0.917	> 1000	0.475	276	0.757	1220	0.902	> 2000	0.982	> 8000	0.991	> 10000
COLO-668 (small cell lung carcinoma, adherent)	0.981	> 1000	0.61	641	0.929	> 4000	0.981	> 2000	0.981	> 8000	0.989	> 10000
COLO-824 (breast, adherent)	0.922	> 1000	0.657	883	0.867	3740	0.899	> 2000	0.956	> 8000	0.987	> 10000
COR-L95 (small cell lung carcinoma, adherent)	0.952	> 1000	0.613	691	0.915	> 4000	0.856	> 2000	0.984	> 8000	0.987	> 10000
CPC-N (small cell lung carcinoma, suspension)	0.631	149	0.43	202	0.635	612	0.608	255	0.985	> 8000	0.971	> 10000
CW-2 (large intestine, adherent)	0.948	> 1000	0.6	613	0.954	> 4000	0.984	> 2000	0.989	> 8000	0.989	> 10000
D-263MG (glioma, adherent)	0.683	228	0.711	1450	0.611	538	0.786	1060	0.956	> 8000	0.948	> 10000

Cell Line	AUC (MG-132)	IC50 (MG-132) [nM]	AUC (AR-42)	IC50 (AR-42) [nM]	AUC (GDC0941)	IC50 (GDC0941) [nM]	AUC (CEP-701)	IC50 (CEP-701) [nM]	AUC (Pazopanib)	IC50 (Pazopanib) [nM]	AUC (SB 216763)	IC50 (SB 216763) [nM]
D-392MG (glioma, adherent)	0.668	218	0.713	1610	0.922	> 4000	0.683	492	0.845	> 8000	0.967	> 10000
D-502MG (glioma, adherent)	0.862	> 1000	0.649	1050	0.756	2120	0.595	263	0.817	> 8000	0.95	> 10000
D-542MG (glioma, adherent)	0.495	60.5	0.583	567	0.781	2050	0.964	> 2000	0.933	> 8000	0.984	> 10000
DG-75 (Burkitt lymphoma, suspension)	0.985	> 1000	0.666	933	0.836	2690	0.474	106	0.984	> 8000	0.986	> 10000
DMS-79 (small cell lung carcinoma, suspension)	0.986	> 1000	0.698	1270	0.973	> 4000	0.92	> 2000	0.975	> 8000	0.987	> 10000
DMS-114 (small cell lung carcinoma, adherent)	0.896	> 1000	0.769	2220	0.802	2320	0.831	1540	0.955	> 8000	0.985	> 10000
DSH1 (bladder, adherent)	0.409	35.5	0.422	198	0.92	> 4000	0.78	785	0.963	> 8000	0.958	> 10000
EB2 (Burkitt lymphoma, suspension)	0.972	> 1000	0.435	216	0.891	3920	0.971	> 2000	0.797	3370	0.99	> 10000
EB-3 (Burkitt lymphoma, suspension)	0.864	> 1000	0.608	666	0.734	1320	0.984	> 2000	0.944	> 8000	0.984	> 10000
EC-GI-10 (oesophagus, adherent)	0.974	> 1000	0.846	3680	0.704	934	0.713	497	0.977	> 8000	0.986	> 10000
ES1 (Ewing sarcoma, adherent)	0.951	> 1000	0.39	160	0.666	719	0.698	445	0.904	> 8000	0.979	> 10000
ES5 (Ewing sarcoma, adherent)	0.92	> 1000	0.219	41.8	0.597	479	0.274	25.6	0.963	> 8000	0.956	> 10000
ES7 (Ewing sarcoma, adherent)	0.827	633	0.329	105	0.491	236	0.455	94.1	0.887	> 8000	0.979	> 10000
ES8 (Ewing sarcoma, adherent)	0.725	257	0.4	174	0.706	906	0.513	135	0.966	> 8000	0.985	> 10000
ES-2 (ovary, adherent)	0.818	480	0.344	126	0.99	> 4000	0.539	157	0.972	> 8000	0.991	> 10000
EW-11 (Ewing sarcoma, adherent)	0.859	> 1000	0.415	174	0.533	315	0.506	131	0.952	> 8000	0.969	> 10000
EW-16 (Ewing sarcoma, adherent)	0.899	> 1000	0.434	209	0.733	1190	0.59	224	0.93	> 8000	0.934	> 10000
NCI-H1963 (small cell lung carcinoma, suspension)	0.829	517	0.886	4390	–	–	0.681	372	0.991	> 8000	0.991	> 10000
NOMO-1 (acute myeloid leukaemia, suspension)	0.898	> 1000	0.437	211	–	–	0.412	69.2	0.958	> 8000	0.973	> 10000
OVCAR-4 (ovary, adherent)	0.631	172	0.794	3800	–	–	0.821	> 2000	0.827	> 8000	0.973	> 10000
U-87-MG (glioma, adherent)	0.972	> 1000	0.841	4520	–	–	0.885	> 2000	0.975	> 8000	0.977	> 10000
VAL (B-cell lymphoma, suspension)	0.771	386	0.278	74.7	–	–	0.546	167	0.882	> 8000	0.987	> 10000
